Assay results reported in paper PMC4336329 (PLoS ONE, 2015).
Among all 310,000 compounds or so, about 14,000 (4.5%) showed an effect of 50% or more. The effect is printed as a negative number. Some of the results follow.

Each molecule was assayed against human ether-à-go-go-related gene (hERG) potassium channel (human, UniProt Q12809) (assay: primary screen, population patch clamp on CHO cells stably expressing hERG).
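Also: peak tail current of the secondary pulse compared with the same well before compound.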

Sequence of human ether-à-go-go-related gene (hERG) potassium channel (Q12809 whole entry, looked up): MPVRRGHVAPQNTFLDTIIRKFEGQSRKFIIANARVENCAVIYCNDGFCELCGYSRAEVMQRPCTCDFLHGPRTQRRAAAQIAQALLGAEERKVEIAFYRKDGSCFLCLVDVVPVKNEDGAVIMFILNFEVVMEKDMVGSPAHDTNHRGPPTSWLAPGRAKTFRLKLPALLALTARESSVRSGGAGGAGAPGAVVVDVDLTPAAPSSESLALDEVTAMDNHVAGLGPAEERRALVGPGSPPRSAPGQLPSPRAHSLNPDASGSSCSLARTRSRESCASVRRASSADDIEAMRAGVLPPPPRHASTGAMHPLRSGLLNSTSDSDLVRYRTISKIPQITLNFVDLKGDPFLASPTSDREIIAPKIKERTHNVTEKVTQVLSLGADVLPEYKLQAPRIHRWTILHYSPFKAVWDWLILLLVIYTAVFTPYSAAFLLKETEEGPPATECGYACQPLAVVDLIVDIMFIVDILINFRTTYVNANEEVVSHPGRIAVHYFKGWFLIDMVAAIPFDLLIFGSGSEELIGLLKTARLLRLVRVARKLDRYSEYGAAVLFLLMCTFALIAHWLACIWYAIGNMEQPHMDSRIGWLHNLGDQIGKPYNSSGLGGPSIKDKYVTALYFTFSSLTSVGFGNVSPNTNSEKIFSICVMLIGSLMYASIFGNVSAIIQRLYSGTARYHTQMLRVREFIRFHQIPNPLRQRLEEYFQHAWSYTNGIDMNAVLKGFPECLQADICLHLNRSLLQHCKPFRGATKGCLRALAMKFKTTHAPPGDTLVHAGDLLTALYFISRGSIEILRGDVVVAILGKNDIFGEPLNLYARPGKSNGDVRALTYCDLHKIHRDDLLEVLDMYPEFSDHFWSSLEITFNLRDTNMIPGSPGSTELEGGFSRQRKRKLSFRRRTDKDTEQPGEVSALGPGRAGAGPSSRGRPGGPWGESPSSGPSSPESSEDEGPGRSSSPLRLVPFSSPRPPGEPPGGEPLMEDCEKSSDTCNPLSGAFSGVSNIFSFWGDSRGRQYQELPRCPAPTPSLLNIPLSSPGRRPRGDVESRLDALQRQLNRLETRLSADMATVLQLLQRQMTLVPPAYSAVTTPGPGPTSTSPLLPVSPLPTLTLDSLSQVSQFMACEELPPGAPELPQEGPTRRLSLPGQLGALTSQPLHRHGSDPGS

**Q.** Which “hERG current change (%, negative = inhibition) at 10uM” value does the source give for CCCc1nc(SCC(=O)NNC(=O)C2CCCCC2)c2ccccc2n1 here?
**A.** -2.77%

**Q.** Which “hERG current change (%, negative = inhibition) at 10uM” value does the source give for Cc1c2ccccc2nc2c(F)c(NC(C)C)c(F)c(F)c12 here?
**A.** -2.39%

**Q.** For Cc1cccc(C=Nc2ccc3c4c(cccc24)CC3)c1O, which “hERG current change (%, negative = inhibition) at 10uM” value is on record?
**A.** 14%

**Q.** For CC(=O)c1ccc(S(=O)(=O)N2CCN(C(=O)c3ccc(-n4cncn4)c([N+](=O)[O-])c3)CC2)cc1, which “hERG current change (%, negative = inhibition) at 10uM” value is on record?
**A.** -19.7%

**Q.** How did the “hERG current change (%, negative = inhibition) at 10uM” value turn out when Cc1ccc(Cl)cc1NC(=O)NCc1cccnc1 was run?
**A.** 13.2%

**Q.** With S=C(NCCN1CCOCC1)N1CCN(c2cccc(Cl)c2)CC1 as the molecule, how does the “hERG current change (%, negative = inhibition) at 10uM” value read?
**A.** -16%

**Q.** For O=C1CC(C(=O)Nc2ccccc2)N=C(N2CCOCC2)N1 (stereo not drawn), which “hERG current change (%, negative = inhibition) at 10uM” value is on record?
**A.** 3.33%

**Q.** CC(=O)c1cc(F)c(N2CCN(CCC#N)CC2)cc1C was tested. Which “hERG current change (%, negative = inhibition) at 10uM” value did it give?
**A.** 9.89%

**Q.** COc1cccc2oc(-c3ccco3)cc(=O)c12 was tested. Which “hERG current change (%, negative = inhibition) at 10uM” value did it give?
**A.** -1.12%

**Q.** CCOc1ccc(-c2nc(CSCC(=O)NC3CCCc4ccccc43)c(C)o2)cc1 (stereo not drawn) was tested. Which “hERG current change (%, negative = inhibition) at 10uM” value did it give?
**A.** -23.6%

**Q.** Which “hERG current change (%, negative = inhibition) at 10uM” value does the source give for COCCNC(=O)C(=O)c1cc(C)n(-c2ccc([N+](=O)[O-])cc2)c1C here?
**A.** -42%

**Q.** COC(=O)c1nc(N)sc1C(C)C was tested. Which “hERG current change (%, negative = inhibition) at 10uM” value did it give?
**A.** 33.9%

**Q.** Which “hERG current change (%, negative = inhibition) at 10uM” value does the source give for CCOC(=O)c1c(NC(=O)Cn2cnc3sc(C)c(-c4ccccc4)c3c2=O)sc(C)c1C here?
**A.** 3.9%

**Q.** With CSCCC(NC(N)=O)C(=O)N(C)CC(=O)Nc1ccc(C)cc1 (stereo not drawn) as the molecule, how does the “hERG current change (%, negative = inhibition) at 10uM” value read?
**A.** 6.41%

**Q.** Which “hERG current change (%, negative = inhibition) at 10uM” value does the source give for CCOC(=O)Cc1c(C)nc2c(-c3ccccc3)c(-c3ccccc3)[nH]n2c1=O here?
**A.** -13.3%

**Q.** CN(C)S(=O)(=O)c1ccc(N=Cc2c(C(F)(F)F)[nH]n(C)c2=O)cc1 was tested. Which “hERG current change (%, negative = inhibition) at 10uM” value did it give?
**A.** 14.9%

**Q.** For CC(C)N1C(=O)CCC1C(=O)O (stereo not drawn), which “hERG current change (%, negative = inhibition) at 10uM” value is on record?
**A.** 12.8%

**Q.** Which “hERG current change (%, negative = inhibition) at 10uM” value does the source give for CCOC(=O)c1nc(SC)n(C)c1C(=O)OCC here?
**A.** 14.5%

**Q.** For O=C(c1ccc(F)cc1)N1CCCCC(Sc2nnc3ccccn23)C1=O (stereo not drawn), which “hERG current change (%, negative = inhibition) at 10uM” value is on record?
**A.** -59.9%

**Q.** With CCSC1=C(C#N)C(c2cccc(O)c2)CC(=O)N1 (stereo not drawn) as the molecule, how does the “hERG current change (%, negative = inhibition) at 10uM” value read?
**A.** 2.7%

**Q.** Which “hERG current change (%, negative = inhibition) at 10uM” value does the source give for CCn1c(-c2ccc(C)cc2)nn(CC(=O)NCCc2ccccc2)c1=S here?
**A.** -17.6%

**Q.** With O=C(Nc1ccncc1)c1ccc2c(c1)C(=O)N(CC1CCCO1)C2=O (stereo not drawn) as the molecule, how does the “hERG current change (%, negative = inhibition) at 10uM” value read?
**A.** -12.7%

**Q.** O=C(c1ccccc1)N(Cc1cccnc1)C1(C(=O)Nc2ccccc2)CCCCC1 was tested. Which “hERG current change (%, negative = inhibition) at 10uM” value did it give?
**A.** 5.29%

**Q.** Which “hERG current change (%, negative = inhibition) at 10uM” value does the source give for CC1(C)CCC[C@@]2(C)CC=C(C(=O)O)[C@@H]3C[C@]312 here?
**A.** 11.7%

**Q.** CCOc1c(OC)cccc1C1CC(=O)Nc2cc3c(cc21)OCCO3 (stereo not drawn) was tested. Which “hERG current change (%, negative = inhibition) at 10uM” value did it give?
**A.** -1.63%

**Q.** For CCC(=O)Nc1sc(C(=O)Nc2ccccc2F)c(C)c1C(=O)OC, which “hERG current change (%, negative = inhibition) at 10uM” value is on record?
**A.** 1.65%

**Q.** With CCS(=O)(=O)N1CCN(c2ccc([N+](=O)[O-])c(N3CCOCC3)c2)CC1 as the molecule, how does the “hERG current change (%, negative = inhibition) at 10uM” value read?
**A.** -0.384%

**Q.** For CCN(CC)CCNC(=O)C1CCN(S(=O)(=O)c2c(C)noc2/C=C/c2ccccc2F)CC1, which “hERG current change (%, negative = inhibition) at 10uM” value is on record?
**A.** -36.2%

**Q.** With O=C(Oc1c(Br)cc(C(=S)N2CCOCC2)cc1Br)c1ccc(Cl)cc1 as the molecule, how does the “hERG current change (%, negative = inhibition) at 10uM” value read?
**A.** 11.3%

**Q.** With CC12COC3(C(=O)N4CCN(c5ccccn5)CC4)CC1CCC32C (stereo not drawn) as the molecule, how does the “hERG current change (%, negative = inhibition) at 10uM” value read?
**A.** -17.7%

**Q.** For CCOc1ccc(C(C)=O)cc1Cn1c(=O)oc2ccccc21, which “hERG current change (%, negative = inhibition) at 10uM” value is on record?
**A.** 4.36%

**Q.** How did the “hERG current change (%, negative = inhibition) at 10uM” value turn out when CC(=O)c1c(C)[nH]c(C(=O)OCc2ccccc2F)c1C was run?
**A.** 8.53%

**Q.** Which “hERG current change (%, negative = inhibition) at 10uM” value does the source give for CSc1nc2ccc3nc(NC(=O)c4ccc(C)cc4)sc3c2s1 here?
**A.** 15.7%

**Q.** CCOc1ccc(C(=O)NCC(=O)OCc2c(C)noc2C)cc1 was tested. Which “hERG current change (%, negative = inhibition) at 10uM” value did it give?
**A.** -1.61%

**Q.** Which “hERG current change (%, negative = inhibition) at 10uM” value does the source give for Cc1nnc(NC(=O)c2ccc(S(=O)(=O)N3CC(C)CC(C)C3)cc2)o1 (stereo not drawn) here?
**A.** 5.33%

**Q.** O=C(CN(Cc1cccs1)C(=O)CNS(=O)(=O)c1ccc(Cl)cc1)NCC1CCCO1 (stereo not drawn) was tested. Which “hERG current change (%, negative = inhibition) at 10uM” value did it give?
**A.** -10.7%

**Q.** With O=C(COc1ccccc1)Nc1ccccc1F as the molecule, how does the “hERG current change (%, negative = inhibition) at 10uM” value read?
**A.** 12.7%

**Q.** How did the “hERG current change (%, negative = inhibition) at 10uM” value turn out when O=C(OCC(=O)N1CCc2ccccc21)c1ccccc1[N+](=O)[O-] was run?
**A.** -2.35%

**Q.** How did the “hERG current change (%, negative = inhibition) at 10uM” value turn out when CC1CCC2(CC1)NC(=O)N(CC(=O)N(Cc1ccccc1)C(C)(C)C)C2=O (stereo not drawn) was run?
**A.** 10.6%

**Q.** For COc1cccc(NC2=C(Cl)C(=O)OC2OC(=O)c2ccco2)c1 (stereo not drawn), which “hERG current change (%, negative = inhibition) at 10uM” value is on record?
**A.** 8.53%

**Q.** How did the “hERG current change (%, negative = inhibition) at 10uM” value turn out when O=C1CC(C(=O)O)S/C(=N\NC(=O)c2ccc(F)cc2)N1 (stereo not drawn) was run?
**A.** -1.66%

**Q.** How did the “hERG current change (%, negative = inhibition) at 10uM” value turn out when O=C(NNc1nc(-c2ccccc2)cs1)c1ccccc1 was run?
**A.** 3.27%

**Q.** Which “hERG current change (%, negative = inhibition) at 10uM” value does the source give for Cc1ccc(-n2ccc(=O)c(C(=O)Nc3ccc(S(=O)(=O)N4CCOCC4)cc3)n2)cc1 here?
**A.** 7.92%

**Q.** How did the “hERG current change (%, negative = inhibition) at 10uM” value turn out when CC(C)(C)NC(=O)NC(=O)COC(=O)c1cccc(S(=O)(=O)N2CCCCC2)c1 was run?
**A.** 9.66%

**Q.** How did the “hERG current change (%, negative = inhibition) at 10uM” value turn out when Cc1nc2ccccc2c2c1C(=O)N(c1cccc(C(=O)O)c1)C2=O was run?
**A.** 23.2%

**Q.** Which “hERG current change (%, negative = inhibition) at 10uM” value does the source give for Clc1ccc(Cl)c(OCc2cc(-c3ccccc3Cl)on2)c1 here?
**A.** 18.7%

**Q.** Which “hERG current change (%, negative = inhibition) at 10uM” value does the source give for Cc1cc(C(=O)OCC(=O)c2ccc(Br)s2)c(C)o1 here?
**A.** -1.64%

**Q.** Which “hERG current change (%, negative = inhibition) at 10uM” value does the source give for c1ccc(CNc2ncnc3sc4c(c23)CCCC4)nc1 here?
**A.** -27.4%

**Q.** How did the “hERG current change (%, negative = inhibition) at 10uM” value turn out when CC(/C=N/NC(=O)c1nnn(-c2nonc2N)c1CN1CCCCC1)c1ccccc1 (stereo not drawn) was run?
**A.** -21.8%

**Q.** For CC1(C)CC(=O)c2cc(N=C/C(C(=O)c3ccccc3)=C(\O)c3ccccc3)c(=O)oc2C1, which “hERG current change (%, negative = inhibition) at 10uM” value is on record?
**A.** 17.6%

**Q.** With CCc1n[nH]c(=S)n1/N=C/c1ccc2c(c1)OCO2 as the molecule, how does the “hERG current change (%, negative = inhibition) at 10uM” value read?
**A.** 11.3%

**Q.** For COc1ccccc1OCc1ccc(C(=O)NN)o1, which “hERG current change (%, negative = inhibition) at 10uM” value is on record?
**A.** 16.5%

**Q.** With Nc1ccc(-c2ccc(C(=O)O)s2)cn1 as the molecule, how does the “hERG current change (%, negative = inhibition) at 10uM” value read?
**A.** 8.16%

**Q.** For O=C(Nc1ccc2c(c1)OCCO2)C1CCCN(S(=O)(=O)c2cccs2)C1 (stereo not drawn), which “hERG current change (%, negative = inhibition) at 10uM” value is on record?
**A.** 4.28%

**Q.** COc1ccc(CN(C(=O)c2snc(C(N)=O)c2N)C(CC(C)C)C(=O)NC2CCCCC2)cc1 (stereo not drawn) was tested. Which “hERG current change (%, negative = inhibition) at 10uM” value did it give?
**A.** -9.95%

**Q.** With O=C(NCc1nc(-c2ccccc2)no1)c1ccc(Br)o1 as the molecule, how does the “hERG current change (%, negative = inhibition) at 10uM” value read?
**A.** -6.85%

**Q.** How did the “hERG current change (%, negative = inhibition) at 10uM” value turn out when O=C(O)CCCC(=O)Nc1ccccc1C(=O)N1CCOCC1 was run?
**A.** 10.5%
